Values joined by “and” are separate entries in the source; they are usually repeats but may differ in a detail not shown here. Identical values can stand only once. In all, about 150,000 compounds went through this assay and about 6,500 (4.3%) were called active. The inconclusive results got no clear call from the source; some entries with a clear call stand among them for comparison. The call rests on the fitted dose curve; in most records, active means well fitted inhibition curve with a large enough effect (not every such curve was filed as active); inconclusive means small, poorly fitted or top-dose-only effect, or another doubt; inactive means no such curve, though single readings can be large or run the other way. A potency beside an inconclusive call is a rough fit, not a confirmed value.
target: 15-hydroxyprostaglandin dehydrogenase [NAD(+)] (Homo sapiens) (UniProt P15428); assay: qHTS Assay for Inhibitors of HPGD (15-Hydroxyprostaglandin Dehydrogenase); conditions: purified HPGD, NADH fluorescence kinetic, PGE2 substrate; activity change, negative = inhibition: hits give low values
Sequence of UniProt P15428 (P15428 whole entry, looked up): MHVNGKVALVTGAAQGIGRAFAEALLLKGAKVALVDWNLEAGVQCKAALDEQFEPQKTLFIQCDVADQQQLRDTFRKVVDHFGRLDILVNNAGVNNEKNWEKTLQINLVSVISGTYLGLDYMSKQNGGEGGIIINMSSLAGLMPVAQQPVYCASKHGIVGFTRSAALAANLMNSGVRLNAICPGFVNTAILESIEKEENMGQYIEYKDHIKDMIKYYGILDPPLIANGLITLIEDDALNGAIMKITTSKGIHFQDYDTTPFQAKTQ
How it was run: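 20 nM HPGD preincubated 15 min at room temperature with compound in 50 mM Tris-HCl pH 8, 0.01% Tween 20. Started with 1 mM NAD+ and 30 uM prostaglandin E2; NADH fluorescence (360/450 nm) read 5 times over 30-s intervals, last minus first.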
On the % scale 0 is the no-effect control and ±100 the full control effect; potency means the concentration at half of the fitted maximal effect; tags describe the fitted curve by direction and shape.

Compound | Potency | activity change, negative = inhibition
COc1ccc(-c2nc3ccc(N4CCCC4)cc3c(=O)[nH]2)cc1OC | inconclusive: 15.8 µM [inhibitor, partial curve] | 
Cc1ccccc1-c1nnc(SCc2ccccc2)o1 | active: 22.4 µM | 
O=c1cc(-c2ccccc2Cl)oc2c([N+](=O)[O-])c(O)cc(O)c12 | active: 14.1 µM and active: 28.2 µM | 
C[N+](C)(C)c1ncnc2c1ncn2[C@@H]1C[C@H](O)[C@@H](CO)O1 |  | inactive: -8.26%
O=C(N/N=C/c1cccc([N+](=O)[O-])c1O)c1cccs1 | inconclusive: 28.2 µM [inhibitor, partial curve] | 
Cc1nc2c(C(=O)NCCC3=CCCCC3)c[nH]n2c(=O)c1Cl |  | inactive: -29.2%
Cc1ccc(-c2nnc(N3CCN(C(=O)CSc4ncn[nH]4)CC3)c3ccccc23)cc1 |  | inactive: -25.6%
CCn1c(C(O)c2ccc3c(c2)OCO3)nc2ccccc21 (stereo unspecified) | inconclusive: 39.8 µM [inhibitor, single point] | 
Cc1[nH][nH]c(=O)c1C(c1ccc(-c2ccc(Cl)cc2Cl)o1)c1c(C)[nH][nH]c1=O | inconclusive: 31.6 µM [inhibitor, single point] | 
Brc1ccc2oc3c(N4CCOCC4)ncnc3c2c1 | inconclusive: 39.8 µM [inhibitor, single point] | 
COC(=O)CSc1nc(NCC(C)C)nc(N2CCOCC2)n1 |  | inactive: 5.36%
C=CCn1c(SCC(=O)OC)nc2sc3c(c2c1=O)CCN(C)C3 | inconclusive: 28.2 µM [inhibitor, single point] | 
COc1cccc2c(=O)c(C(=O)NCc3cccs3)c[nH]c12 | inconclusive: 14.1 µM [inhibitor, partial curve] | 
Cc1ccc(CSc2nnc(-c3ccc(NS(=O)(=O)c4ccccc4)cc3)o2)cc1 |  | inactive: -21.6%
CC(=O)c1cccc(NC(=O)C2CC(=O)N(c3cccc(C)c3C)C2)c1 (stereo unspecified) |  | inactive: -1.58%
O=C1CCCN1CCC1CCN(C2CC(=O)N(Cc3ccc(N4CCCC4=O)cc3)C2=O)CC1 (stereo unspecified) |  | inactive: 4.92%
CC1COc2c(N3CCN(C)CC3)c(F)cc3c(=O)c(C(=O)O)cn1c23 (stereo unspecified) | inconclusive: 3.16 µM [inhibitor, full curve] and inconclusive: 25.1 µM [inhibitor, partial curve] | 
COc1ccc(NC(=O)c2ccc(-c3ccccc3)cc2)cc1NS(=O)(=O)c1ccc(F)cc1 | inconclusive: 28.2 µM [inhibitor, partial curve] | 
CCOC(=O)c1c(NC(=O)Nc2cccc(Cl)c2)sc(C)c1C | inconclusive: 31.6 µM [inhibitor, partial curve] | 
Cc1cccc(/C=C2\CS/C(=C\c3cccc(C)c3)C2=O)c1 |  | inactive: -8.46%
Cc1ccc2nc(N3C(=O)C(O)=C(C(=O)c4ccco4)C3c3cccs3)sc2c1 (stereo unspecified) | active: 14.1 µM | 
Brc1ccc2ncnc(NCc3ccco3)c2c1 | inconclusive: 20 µM [inhibitor, partial curve] | 
CCOC(=O)CNC(=O)c1ccc(C)cc1 |  | inactive: -18%
CC(C)CCNC(=O)c1cc(-c2ccco2)nc2ccccc12 | inconclusive: 17.8 µM [inhibitor, partial curve] | 

Compound | Potency | activity change, negative = inhibition
COc1nc2ccccc2cc1-c1noc(-c2cccnc2)n1 | inconclusive: 14.1 µM [inhibitor, partial curve] | 
CCOC(=O)C1CCCN(Cc2cc(Br)ccc2OC)C1 (stereo unspecified) |  | inactive: -2.65%
CN(C)S(=O)(=O)c1cccc(-c2nn(-c3ccccc3)cc2/C=C(/C#N)C(=O)NCc2ccco2)c1 | inconclusive: 28.2 µM [inhibitor, partial curve] | 
O=C(CN1C(=O)/C(=C\c2ccccc2F)SC1=S)Nc1nc2ccccc2s1 |  | inactive: -21.2%
COc1ccccc1C(=O)NNC(=O)c1ccccc1[N+](=O)[O-] |  | inactive: -2.96%
CCOc1ccc(-n2nc3ccc(NC(=O)c4ccc5c(c4)OCCO5)cc3n2)cc1 | inconclusive: 28.2 µM [inhibitor, partial curve] | 
COc1ccc(NC(=O)CSc2nnc(-c3cccs3)n2-c2ccccc2)cc1 |  | inactive: -6.67%
CC1(c2ccc(Cl)cc2)NC(=O)N(CC(=O)NC(=O)NCc2ccco2)C1=O (stereo unspecified) |  | inactive: 0.974%
CN1CCN(C(=S)c2ccc(-c3cccc(Cl)c3Cl)o2)CC1 | active: 22.4 µM | 
Nc1ccc(-c2nc3ccc(-c4nc5ccccc5o4)cc3[nH]2)cc1 | inconclusive: 3.55 µM [inhibitor, full curve] | 
c1ccc(-c2noc(-c3cccc4ccccc34)n2)cc1 | inconclusive: 28.2 µM [inhibitor, single point] | 
COc1cccc(/C=C2\SC(=O)N(CCC(=O)NNC(=O)c3ccccc3Cl)C2=O)c1 | inconclusive: 35.5 µM [inhibitor, single point] | 
Cc1cc(Br)ccc1OCC(=O)N1CCCCCC1 | active: 39.8 µM | 
COc1nc(N/N=C/c2ccc(C)cc2)nc(N2CCCCC2)n1 |  | inactive: -2.09%
CCc1ccc(Nc2ncccc2C#N)cc1 | inconclusive: 31.6 µM [inhibitor, partial curve, poor fit] | 
O=C(NCc1ccc2c(c1)OCO2)c1cc2ccccc2o1 | inconclusive: 20 µM [inhibitor, single point] | 
Cc1ccccc1NC(=O)Cn1nnc2c(cnn2-c2ccc(F)cc2)c1=O |  | inactive: -13.4%
COc1ccc(-c2nc3ccccc3c(=O)n2CCOc2cccc(C)c2C)cc1 | inconclusive: 28.2 µM [inhibitor, partial curve] | 
CSc1nc(-c2ccco2)nn1C(=O)c1cccs1 | inconclusive: 28.2 µM [inhibitor, partial curve] | 
O=C1OC(NC(=O)c2ccccc2)C(n2cc(CO)nn2)=C1Cl (stereo unspecified) | active: 22.4 µM | 
CCOC(=O)c1ccc(NC(=O)CCc2c(C)nc3ncnn3c2C)cc1 | inconclusive: 31.6 µM [inhibitor, partial curve, poor fit] | 
O=C(C1Cc2ccccc2O1)N1CCCCC1 (stereo unspecified) | active: 25.1 µM | 
NCc1ccccc1COc1ccccc1 |  | inactive: -4.17%
CSC1=N/C(=C\c2ccc3c(c2)OCO3)C(=O)S1 |  | inactive: -15.7%

Compound | Potency | activity change, negative = inhibition
CCN1c2ccccc2-c2nc3ccccc3n2C1c1cccs1 (stereo unspecified) | inconclusive: 28.2 µM [inhibitor, partial curve] | 
C/C=C/c1ccc2oc(-c3ccc(O)cc3)c(C)c2c1 | inconclusive: 31.6 µM [inhibitor, partial curve] | 
Cc1ccccc1Cn1nc(C)c(NC(=O)/C=C/c2cnn(C)c2)c1C |  | inactive: 0.611%
CN(C)c1ccc(N2CN=C3SCC(=O)N3C2)cc1 |  | inactive: -15.8%
COc1ccc(CN(C(=O)CSc2nnc(-c3ccc(OC)c(OC)c3)o2)c2ccc(F)cc2)cc1 | active: 14.1 µM | 
CN(N=O)c1ccc(/C=C\c2ccnc3ccccc23)cc1 | inconclusive: 3.55 µM [inhibitor, partial curve] | 
CS(=O)(=O)N(CC(O)Cn1c2ccccc2c2ccccc21)c1cccc2ccccc12 (stereo unspecified) | inconclusive: 39.8 µM [inhibitor, single point] | 
CN(c1ccc(F)cc1)S(=O)(=O)c1ccc2[nH]cc(C(=O)O)c(=O)c2c1 | inconclusive: 25.1 µM [inhibitor, single point] | 
O=C(Nc1ncc2c(n1)-c1ccccc1CC2)c1cccc(Cl)c1 | inconclusive: 28.2 µM [inhibitor, partial curve] | 
c1ccc(-c2nnc(CSc3nc4ccccc4[nH]3)o2)cc1 | active: 28.2 µM | 
CC1CSc2nc3sc4c(c3c(=O)n21)CCCC4 (stereo unspecified) | inconclusive: 35.5 µM [inhibitor, single point] | 
CCOC(=O)c1c(N)sc(C(=O)N2CCCCC2)c1C | active: 8.91 µM | 
Cc1ccc2cc(-c3noc(C4CCCO4)n3)c(=O)[nH]c2c1 (stereo unspecified) | inconclusive: 22.4 µM [inhibitor, partial curve] | 
O=c1c(-c2ccc(O)cc2)coc2cc(OC3OC(CO)C(O)C(O)C3O)cc(O)c12 (stereo unspecified) | inconclusive: 39.8 µM [inhibitor, single point] | 
CCCc1cc(N2CCCC(C(=O)Nc3ccc(OC)cc3OC)C2)n2ncnc2n1 (stereo unspecified) | active: 28.2 µM | 
COC(=O)c1[nH]c2cccc(OC)c2c1NC(=O)CCN1CC(C)CC(C)C1 (stereo unspecified) | inconclusive: 25.1 µM [inhibitor, partial curve] | 
Cc1cccc(OCC(=O)N/N=C/c2cc([N+](=O)[O-])ccc2N2CCOCC2)c1 | inconclusive: 22.4 µM [inhibitor, partial curve] | 
COc1ccc(S(=O)(=O)n2ccc(-c3cnc(-c4ccccc4)s3)n2)cc1 | inconclusive: 28.2 µM [inhibitor, partial curve] | 
Cc1cc(=O)oc2cc(OCC(=O)NCc3ccncc3)ccc12 | inconclusive: 28.2 µM [inhibitor, partial curve] | 
CCCCn1c(=O)[nH]c(=O)c2c1nc(-c1ccc(-c3ccccc3Br)o1)n2CCOC | inconclusive: 28.2 µM [inhibitor, partial curve] | 
c1ccc(-c2oc3ncnc(N4CCOCC4)c3c2-c2ccccc2)cc1 | inconclusive: 28.2 µM [inhibitor, partial curve] | 
Cc1ccc2nsnc2c1NC(=O)c1sc2ccccc2c1Cl | inconclusive: 39.8 µM [inhibitor, single point] | 
O=C(c1nc2nc(-c3ccc(Cl)cc3)cc(C(F)(F)F)n2n1)N1CCOCC1 | inconclusive: 28.2 µM [inhibitor, partial curve] | 
